In the supplement of paper PMC10338343:
± gives the standard deviation. Only a part is listed here, and it is no random draw.

The sequences below were run on MIWI (PIWIL1) piRISC loaded with L1MC piRNA (30 nt) (assay: pre-steady-state target cleavage rate (min^-1); MIWI and MILI are mouse PIWI proteins and EfPiwi is from a freshwater sponge; tags in brackets are library labels; higher = faster piRNA-guided slicing of the target). Conditions: guide: L1MC piRNA 5'p-UAACUAAAUACUAUGCAAGCUGUAGGUCCU; auxiliary factor: 500 nM mouse GTSF1.
Summary of the method: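 A burst-and-steady-state fit was used to obtain the pre-steady-state cleavage rate. The input data were sequencing reads of uncleaved targets, normalised to depth and to weakly complementary targets, from a […] transcribed, DNA-blocked target RNA library mixed with 1 nM active affinity-purified piRISC holding one synthetic guide, with or without 500 nM GTSF1 partner protein, in HEPES–potassium acetate buffer at 33 °C for 0–8 or 0–960 min. Three trials were pooled and k3 was capped at 0.0001 min^-1.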
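Also: 1 nM active piRISC with 0.1 nM target library at 33 °C single turnover.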

Point of comparison: UCCUGGAUCAGCUUGCAUAGUAGUUUAGUUA, “pre-steady-state target cleavage rate” value 0.253 ± 0.031. Against it:
- AGGACCUACACGUUGCAUAGUAUUUAGUAA — higher, 0.742 ± 0.052
- UCCUGGUACAGCUUGGAUAGUAUUAAGUUA — within error, 0.233 ± 0.047
- UGGACCUAGUGCUUGCAUAGUAUUUAGUAA — within error, 0.285 ± 0.021
- UCCUGGAUCAGCUUGCUUAGAAUUUAGUUA — lower, 0.0591 ± 0.0074
- UCCUGGUACAGCUUGCAAUGUAUUUAGUAA — lower, 0.0915 ± 0.016
- UCGACCUACACCUUGCAAAGUAUUUAGUUA — higher, 1.05 ± 0.037
- UCCUCCUACAGCUUGCAUAGUGUUUAGUUA — higher, 0.874 ± 0.031
- UCCUGGAACAGCUUGCAUCGUAUUUAGUUA — higher, 0.37 ± 0.026
- UCCUGGAUGUGCUUGCAAAGUUUUUAGUUA — lower, 0.00751 ± 0.0037
- UCCACCUACAGCUUGCAUAGUAUUUAGUCUA — within error, 0.192 ± 0.035
- UCGACGUACAGCUUGCAUAGUAUUUUGUUA — higher, 0.798 ± 0.037
- UCCUGGUACAGCUAGCUUAGUAUUUAGUUA — higher, 0.689 ± 0.045
- UCCUGGAACAGACUUGCAUAGUAUUUAGUUA — higher, 0.798 ± 0.048
- UCGACCUACAGCUUGCAUAGUAUUGUAGUUA — higher, 0.359 ± 0.042
- UCCUGGUGCAGCUUGCAUAGUAUUUAGUUA — higher, 0.991 ± 0.046
- UCGACCAAGAGCUUGCAUAGUAUUUAGUUA — higher, 0.954 ± 0.04
- UCCUCCUACAGGAAGCAUAGUAUUUAGUAA — higher, 0.612 ± 0.088
- UCCAGCUACAGCUUGCAUAGUAUUUACAAA — within error, 0.313 ± 0.036
- UCCUGGAUGAGCUUGCAUAGAAUUUAGAAA — lower, 0.0287 ± 0.011
- UCCUGGAUCAGCUUGCAAAGUAUUUACAAA — lower, 0.144 ± 0.025
- UCCUCCUACAGCUUGCAUAGUAUUUAGCUA — within error, 0.342 ± 0.1
- UGGACCUACAGCUUGCAUAGUAUUUAGAUA — higher, 0.445 ± 0.039
- UCGACCUACAGCUUGCAUAGUAUUUUGUUA — higher, 0.921 ± 0.043
- UCCUGGUACACGCUUGCAUAGUAUUUAGUUA — within error, 0.216 ± 0.046
- AGGACCUAGUGCUUGCAUAGUAUUUACAAA — lower, 0.0539 ± 0.011
- UCCUGGAUCAGCUUGCAUAGUAUUCUAGUUA — higher, 0.583 ± 0.066
- UGGUGGUACAGCUUGCAUAGUAUUUACAAA — lower, 0.0681 ± 0.014
- AGGACCUACAGCAUGCAUAGUAUAUAGUUA — higher, 0.883 ± 0.073
- UCCUGCUACAGCUUGCAUAGCAUUUAGUUA — higher, 0.319 ± 0.027
- UCCUGGAUCAGGUUGCAUAGUAUUUAGUUA — higher, 0.568 ± 0.028
- UCCUCCUACAGCAUGCAUAGUAUUUAGUUA — higher, 1.2 ± 0.051
- UCCUGGUAGAGCUUGCAUAGUUUUUAGUUA — lower, 0.115 ± 0.015
- AGGACCUACACCUUGCAUAGUAUUUAGUAA — higher, 0.838 ± 0.068
- UCCUGGAUGAGCUUGGAUAGUAUUUAGUUA — higher, 0.652 ± 0.051
- UCCUGCUACAGCUUGCAUAGUAUUUAAUUA — within error, 0.297 ± 0.035
- UCCACCUAGUCCUUGCAUAGUAUUUAGUUA — higher, 0.613 ± 0.028
- UCCUGCUACUCGUUGCAUAGUAUUUAGUUA — higher, 0.489 ± 0.041
- UCCUGGUACAGCUUGCAUAGUAAUUAGAAA — within error, 0.19 ± 0.04
- UCCUGGUACAGCUUGCAGAGUAUUUAGUUA — within error, 0.315 ± 0.056

Same assay, conditions: guide: L1MC piRNA 5'p-UAACUAAAUACUAUGCAAGCUGUAGGUCCU; auxiliary factor: none (no GTSF1)

Point of comparison: UCGACCUACACCUUGCAAAGUAUUUAGUUA, “pre-steady-state target cleavage rate” value 0.0403 ± 0.0079. Against it:
- AGGACCUACACGUUGCAUAGUAUUUAGUAA — lower, 0.0223 ± 0.0036
- UCCUGGUACAGCUUGGAUAGUAUUAAGUUA — lower, 0.0147 ± 0.0042
- UGGACCUAGUGCUUGCAUAGUAUUUAGUAA — lower, 0.0169 ± 0.0038
- UCCUGGAUCAGCUUGCUUAGAAUUUAGUUA — lower, 0.00983 ± 0.0038
- UCCUGGUACAGCUUGCAAUGUAUUUAGUAA — lower, 0.00419 ± 0.0022
- UCCUCCUACAGCUUGCAUAGUGUUUAGUUA — within error, 0.0506 ± 0.01
- UCCUGGAACAGCUUGCAUCGUAUUUAGUUA — within error, 0.0411 ± 0.0093
- UCCUGGAUGUGCUUGCAAAGUUUUUAGUUA — lower, 0.00575 ± 0.002
- UCCACCUACAGCUUGCAUAGUAUUUAGUCUA — lower, 0.0104 ± 0.0034
- UCCUGGAUCAGCUUGCAUAGUAGUUUAGUUA — lower, 0.00814 ± 0.0033
- UCGACGUACAGCUUGCAUAGUAUUUUGUUA — within error, 0.0411 ± 0.0071
- UCCUGGUACAGCUAGCUUAGUAUUUAGUUA — lower, 0.0121 ± 0.0033
- UCCUGGAACAGACUUGCAUAGUAUUUAGUUA — within error, 0.0427 ± 0.0093
- UCGACCUACAGCUUGCAUAGUAUUGUAGUUA — within error, 0.0275 ± 0.0055
- UCCUGGUGCAGCUUGCAUAGUAUUUAGUUA — higher, 0.0644 ± 0.012
- UCGACCAAGAGCUUGCAUAGUAUUUAGUUA — within error, 0.0547 ± 0.011
- UCCUCCUACAGGAAGCAUAGUAUUUAGUAA — lower, 0.00254 ± 0.0019
- UCCAGCUACAGCUUGCAUAGUAUUUACAAA — lower, 0.0031 ± 0.0021
- UCCUGGAUGAGCUUGCAUAGAAUUUAGAAA — lower, 0.00419 ± 0.0032
- UCCUGGAUCAGCUUGCAAAGUAUUUACAAA — lower, 0.00355 ± 0.0026
- UCCUCCUACAGCUUGCAUAGUAUUUAGCUA — lower, 0.00701 ± 0.0032
- UGGACCUACAGCUUGCAUAGUAUUUAGAUA — within error, 0.0386 ± 0.0082
- UCGACCUACAGCUUGCAUAGUAUUUUGUUA — within error, 0.0471 ± 0.0091
- UCCUGGUACACGCUUGCAUAGUAUUUAGUUA — within error, 0.028 ± 0.0062
- AGGACCUAGUGCUUGCAUAGUAUUUACAAA — lower, 0.00467 ± 0.0017
- UCCUGGAUCAGCUUGCAUAGUAUUCUAGUUA — lower, 0.0159 ± 0.0048
- UGGUGGUACAGCUUGCAUAGUAUUUACAAA — lower, 0.00234 ± 0.0023
- AGGACCUACAGCAUGCAUAGUAUAUAGUUA — lower, 0.0258 ± 0.0058
- UCCUGCUACAGCUUGCAUAGCAUUUAGUUA — within error, 0.0302 ± 0.0054
- UCCUGGAUCAGGUUGCAUAGUAUUUAGUUA — lower, 0.00786 ± 0.0024
- UCCUCCUACAGCAUGCAUAGUAUUUAGUUA — lower, 0.0219 ± 0.0048
- UCCUGGUAGAGCUUGCAUAGUUUUUAGUUA — lower, 0.024 ± 0.0058
- AGGACCUACACCUUGCAUAGUAUUUAGUAA — within error, 0.0538 ± 0.0089
- UCCUGGAUGAGCUUGGAUAGUAUUUAGUUA — within error, 0.0464 ± 0.0087
- UCCUGCUACAGCUUGCAUAGUAUUUAAUUA — lower, 0.0245 ± 0.0072
- UCCACCUAGUCCUUGCAUAGUAUUUAGUUA — lower, 0.0193 ± 0.0043
- UCCUGCUACUCGUUGCAUAGUAUUUAGUUA — lower, 0.00699 ± 0.0017
- UCCUGGUACAGCUUGCAUAGUAAUUAGAAA — lower, 0.00377 ± 0.0035
- UCCUGGUACAGCUUGCAGAGUAUUUAGUUA — lower, 0.022 ± 0.006
